In all, about 44,000 compounds went through this assay and about 340 (0.77%) were called active. Not shown: some 5% with an inconclusive outcome. Calls follow the shape of the dose curve; as a rule, active = well fitted inhibition curve with a large enough effect; inconclusive = small, poorly fitted or top-dose-only effect; inactive = flat fitted curve, though single readings scatter. The list shows a part of the results.
Experiment: Acumen qHTS Assay for Inhibitors of the mTORC1 Signaling Pathway in MEF (Tsc2-/-, p53-/-) Cells: Sytravon;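 also: plate controls were DMSO for no effect and rapamycin for full effect; nearly all actives have a fitted effect of over 50% in size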
Details: phospho-rpS6 immunofluorescence/PI, 24 h; series mostly up to 38.3 µM; activity change, negative = inhibition: at the top concentration
Outline: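 Readout is phospho-S6 Alexa 488 signal normalized to PI per well, reported as % active cells with thresholds set from rapamycin (7.5 nM) and DMSO controls. Cells: Tsc2-/-, p53-/- MEFs, 24 hrs compound at 37 C; PI cell number serves as viability.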

Activity change, negative = inhibition, inactive:
Cn1c(=O)c2sccc2n2c(CCC(=O)Nc3ccc(F)cc3)nnc12 6.47%
COc1ccc(OC)c(-c2noc(N3CCN(c4cc(Cl)ccc4C)CC3)n2)c1 -15.4%
Cc1ccc(C)c(NC(=O)CSc2nnc(C)n3c2cc2occc23)c1 -3.29%
CCC1CCCCN1CCCNC(=O)c1ccc2c(c1)sc1nc(-c3ccc(F)cc3)cn12 (stereo unspecified) 1.48%
O=S(=O)(Nc1cccc(-c2ccc(N3CCOCC3)nn2)c1)c1cc(C(F)(F)F)ccc1Cl -8.06%
COc1ccccc1NC(=O)CN1CCN(CC(=O)Nc2ccc(F)c(F)c2)CC1 -8.98%
COC(=O)c1ccc(Cl)cc1NC(=O)Nc1nnc(N(C)Cc2ccccc2)s1 -13.6%
CCC(C(=O)OC)n1nnc2sc(-c3ccccc3)cc2c1=O (stereo unspecified) -11%
CCOC(=O)c1ccc(CN(Cc2ccc(Br)cc2)S(=O)(=O)c2cccc(C(F)(F)F)c2)cc1 13.5%
Cc1ccc(N2C(=O)CS(=O)(=O)C23C(=O)N(Cc2ccccc2F)c2ccccc23)cc1Cl (stereo unspecified) -16.1%
O=C(COc1ccccc1Cl)Nc1ccccc1OCc1cc(=O)n2ccccc2n1 3.45%
CN(c1ccccc1)C(CNS(=O)(=O)c1ccccc1)c1ccccc1 (stereo unspecified) -11.7%
O=C(CN1C(=O)C2CCCCN2c2ccc(C(=O)N3CCCC3)cc21)NCc1ccccc1F (stereo unspecified) -11.2%
CCCCN(CC)CCNc1ncnc2onc(-c3ccc(Cl)cc3)c12 -1.24%
CC(C)COc1ccc(Nc2ncnc3ccc(Br)cc23)cc1 -10.5%
Cc1cccc(NC(=O)NC2COc3ccccc3C2)c1C (stereo unspecified) 5.38%
CNS(=O)(=O)c1cn(CC(=O)Nc2cccc(C(F)(F)F)c2)cc1S(=O)(=O)NC 0.868%
COC(=O)c1sccc1S(=O)(=O)N(CC(=O)NCc1ccc(F)cc1)c1ccc(C)c(C)c1 -0.118%
CNS(=O)(=O)c1cn(CC(=O)N2CCN(c3ccc(C)cc3C)CC2)cc1S(=O)(=O)NC 0.675%
CCc1ccc(CNC(=O)C(CC)n2nc(C)c3c(C)n(-c4ccccc4)nc3c2=O)cc1 (stereo unspecified) -0.555%
CCCNc1ccc(-c2nc(-c3ccco3)no2)cc1[N+](=O)[O-] -1.44%
Cc1cc(S(=O)(=O)n2ccnc2C(C)C)cc([N+](=O)[O-])c1C 7.07%
COc1ccc(CNc2nc(-c3ccco3)nn2C(=O)CC(C)C)cc1 -5.58%
Cc1ccc(CCNC(=O)c2ccc(CNS(=O)(=O)c3ccc(C)cc3)cc2)cc1 1.89%
Cc1ccc(Cl)cc1N1CCN(C(=O)c2cn(CC(C)C)c(=O)c3c2c2ccccc2n3C)CC1 -13%
CCOC(=O)c1nc(Nc2ccc(Cl)cc2)c2c(C)noc2n1 3%
O=C(Nc1cc(C(F)(F)F)ccc1Cl)c1ccc2c(c1)CCN2S(=O)(=O)c1ccccc1 -10.5%
COc1ccc(N2CCN(C(=O)c3ccc4c(c3)N(Cc3cc(C)ccc3C)C(=O)c3ccccc3S4=O)CC2)cc1 (stereo unspecified) -9.07%
Cc1cn2c(=O)cc(COc3cccc(NC(=O)c4ccccc4Cl)c3)nc2s1 -14.7%
COc1cccc(N2CC(NC(=O)C3CCCCC3)CC2=O)c1 (stereo unspecified) 6.09%
CC(=O)c1c(C)oc2ccc(NS(=O)(=O)c3ccc(C(C)C)cc3)cc12 -24.7%
Cc1cc(C)c(Cn2c(=O)n(-c3ccccc3Cl)c(=O)c3c(C)c(C(=O)N(C)C)sc32)c(C)c1 -2.97%
COc1ccc(C(=O)Nc2nnc(S(=O)(=O)N3CCN(c4ccc(C)cc4)CC3)s2)cc1 -2.29%
Cc1ccccc1C(=O)Nc1cccc(-c2cn3cccnc3n2)c1 0.61%
COc1ccc(-c2cc3nc(C)c(CCC(=O)Nc4ccc(F)cc4F)c(C)n3n2)c(OC)c1 -0.204%
COc1cccc(-c2cc(C(=O)Nc3ccc4c(c3)OCO4)no2)c1 -2.81%
CCOc1ccc(C(=O)Nc2ccc(C(=O)OCc3cc(=O)n4nc(CC)sc4n3)cc2)cc1 1.21%
COC(=O)c1ccc(NC(=O)N2CCC(CN3CCc4ccccc4C3)CC2)cc1 1.87%
COc1ccc(NC(=O)CSc2ccc(-c3cccs3)nn2)cc1 -1.98%
COc1ccc(/C=C/C(=O)N2CCC(c3nc4ccccc4o3)CC2)cc1 1.21%
CCOc1ccc(N(CC)S(=O)(=O)N2CCCC(C(=O)Nc3ccc(NC(C)=O)cc3)C2)cc1 (stereo unspecified) -9.74%
CCS(=O)(=O)c1nc(S(=O)(=O)c2ccc(C)cc2)c(NCc2ccc(Cl)cc2)s1 -9.39%
CCOC(=O)c1ccc(NS(=O)(=O)c2cn(C)c(C)n2)cc1 -0.0286%
Cc1ccc(S(=O)(=O)N2CCCc3cc(NC(=O)c4ccc(F)c(F)c4)ccc32)cc1 14.9%
COc1cccc(C(=O)Nc2cc(-c3ccccc3)nn2-c2ccccc2)c1 -1.1%
CCOc1ccc(-c2c(C)nn3c(-c4ccccc4)c(C(=O)NCCOC)cnc23)cc1OCC 2.02%
CCOc1ccc(NC(=O)Cn2cc(C(=O)c3ccc(OCC)cc3)c(=O)c3cc4c(cc32)OCCO4)cc1 0.947%
CN(C)S(=O)(=O)N1CCC(n2cnc3cccnc32)CC1 0%
COc1ccccc1Cn1c(CNS(=O)(=O)c2ccc(CC(C)C)cc2)nc2cccnc21 0.0124%
Cc1ccc(CCNC(=O)c2cc3cc4cc(C)ccc4nc3s2)cc1 -21.2%
COc1ccc(NC(=O)N(C(C)C)C2CCN(C(C)=O)CC2)c(OC)c1 10.5%
COc1cccc(N2C(=O)C(CC(=O)Nc3ccc(F)cc3)N(CCC3=CCCCC3)C2=O)c1 (stereo unspecified) 3.6%
CCc1ccc(NC(=O)CC2C(=O)N(c3ccc(C)cc3)C(=O)N2CCc2ccncc2)cc1 (stereo unspecified) -0.195%
COC(=O)Cc1c(C)c2cc3c(c(C)c2oc1=O)OCN(CCc1ccc(F)cc1)C3 1.92%
COc1cccc(NC(=O)CN2C(=O)COc3ccc(S(=O)(=O)N4CCCCCC4)cc32)c1 -0.525%
O=C1C2=C(Nc3ccccc3SC2c2ccc(Cl)c(Cl)c2)c2ccccc21 (stereo unspecified) -7.86%
Cc1cccc(C)c1OCC(=O)N1CCC(c2nc3ccccc3o2)CC1 -0.58%
Nc1c(C(=O)NCc2ccc3c(c2)OCO3)nnn1CC(=O)Nc1ccc(Br)cc1 -29%
COc1ccc(NC(=O)CN(C)S(=O)(=O)c2ccc(C(=O)N3CCOCC3)s2)cc1 0%
Cc1cc(SCC(=O)Nc2ccc(Cl)cc2)nc2ccccc12 -14.7%
Cc1ccc(Cn2cc(C(=O)c3ccc(C)cc3)c(=O)c3ccc(C)nc32)cc1 -11.1%

Reference: PubChem BioAssay AID493208 (National Center for Advancing Translational Sciences (NCATS), 2011)
